About 16,000 (7.3%) of roughly 220,000 compounds were called active. Inconclusive means that the source gave no clear call. Such entries were picked first, then a sample of the others. The call rests on the fitted dose curve; in most records, active means well fitted inhibition curve with a large enough effect (not every such curve was filed as active); inconclusive means small, poorly fitted or top-dose-only effect, or another doubt; inactive means no such curve, though single readings can be large or run the other way. No potency is given beside an inconclusive call; the fits are too rough.
These molecules were tested against Aldehyde dehydrogenase 1A1 (Homo sapiens) (UniProt P00352) (assay: qHTS Assay for Inhibitors of Aldehyde Dehydrogenase 1 (ALDH1A1)). Conditions: Purified ALDH1A1, NADH fluorescence, propionaldehyde substrate; series mostly up to 75.3 µM; activity, negative = inhibition: at the top concentration.
Sequence of UniProt P00352 (P00352 whole entry, looked up): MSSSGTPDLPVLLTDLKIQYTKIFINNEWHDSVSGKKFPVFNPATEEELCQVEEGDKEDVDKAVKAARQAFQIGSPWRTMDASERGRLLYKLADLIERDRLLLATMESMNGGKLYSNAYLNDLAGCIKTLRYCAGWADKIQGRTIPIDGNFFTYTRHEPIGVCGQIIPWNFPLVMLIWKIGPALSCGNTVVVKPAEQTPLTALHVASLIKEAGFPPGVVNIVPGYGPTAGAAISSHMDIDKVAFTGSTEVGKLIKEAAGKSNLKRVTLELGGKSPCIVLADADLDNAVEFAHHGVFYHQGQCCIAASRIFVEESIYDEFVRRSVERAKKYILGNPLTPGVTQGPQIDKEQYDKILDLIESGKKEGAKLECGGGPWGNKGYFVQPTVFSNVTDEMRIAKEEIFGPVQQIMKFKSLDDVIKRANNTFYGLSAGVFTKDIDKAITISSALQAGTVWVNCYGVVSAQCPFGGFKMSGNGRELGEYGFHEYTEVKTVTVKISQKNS
Potency means the concentration at half of the fitted maximal effect; tags describe the fitted curve by direction and shape.
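Wherever activity, negative = inhibition is given: plate controls were no enzyme wells and a reference inhibitor.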

| SMILES | Potency | activity, negative = inhibition |
| --- | --- | --- |
| Cc1ccc2oc(-c3cccc(NC(=O)C4CCCO4)c3)nc2c1 (centres undefined) | inconclusive [inhibitor, single point] | – |
| COC(=O)c1c(NC(=O)CSc2ncnc3c2cnn3-c2ccccc2Cl)sc2c1CCCC2 | inconclusive [inhibitor, single point] | – |
| C#CCOC(=O)[C@H](N)CC(N)=O | – | inactive: 0.395% [at 13.5 µM] |
| N#CCCn1c(=O)c(CCc2ccccc2)nc2cnc(Nc3ccccc3)nc21 | inconclusive [inhibitor, single point] | – |
| O=c1c2cn[nH]c2nc(SCc2ccccc2F)n1-c1ccc(Br)cc1 | inconclusive [inhibitor, single point] | – |
| CC(C)(C)C(=O)CSc1nnc(Nc2ccccc2)s1 | – | inactive: -3.05% |
| CC(OC(=O)c1oc2ccccc2c1CSC1CCCCC1)C(=O)NC(N)=O (centres undefined) | active: 2 µM | – |
| CCN(CC)CCNC(C(=O)Nc1ccc([N+](=O)[O-])cc1Br)c1ccccc1 (centres undefined) | – | inactive: -10.3% |
| Cc1cc(Oc2ccc(C(C)(C)C)cc2)nc(N2CCOCC2)n1 | – | inactive: 1.38% |
| NC(=O)c1ccsc1NC(=O)COC(=O)Cc1cccc2ccccc12 | inconclusive [inhibitor, single point] | – |
| CCC1C(=O)N=C(SCC(=O)Nc2ccc(S(N)(=O)=O)cc2)NC1=O (centres undefined) | inconclusive [inhibitor, single point] | – |
| CC(Sc1nnc(Cc2cccs2)n1C1CCCCC1)C(=O)N1CCc2ccccc21 (centres undefined) | inconclusive [inhibitor, partial curve] | – |
| O=C(NCc1cccnc1)c1cc2nc(-c3ccc4c(c3)OCO4)cc(C(F)(F)F)n2n1 | inconclusive [inhibitor, single point] | – |
| COc1ccc(C(=O)C2CCCN(C(=O)c3cc(C)nc(C)n3)C2)cc1OC (centres undefined) | inconclusive [inhibitor, single point] | – |
| CCN1CCN(C(=O)c2ccc(CSc3ccc(C)cc3)cc2)CC1 | inconclusive [inhibitor, partial curve, poor fit] | – |
| COc1ccc(-c2[nH]ncc2CNCCc2ncccc2C)cc1F | inconclusive [inhibitor, partial curve] | – |
| CCN(CC)C(=O)Cn1cc(S(=O)(=O)CC(=O)NCc2ccc3c(c2)OCO3)c2ccccc21 | – | inactive: -3.66% |
| Cc1cccc(N2C(=O)CC(N3CCOCC3)C2=O)c1 (centres undefined) | inconclusive [inhibitor, single point] | – |
| O=c1c(-c2cccs2)nc2cnc(Oc3cccc(Cl)c3)nc2n1C1CC1 | inconclusive [inhibitor, full curve] | – |
| CC(=O)OCCNc1cc(SCc2ccco2)c2nonc2c1[N+](=O)[O-] | inconclusive [inhibitor, partial curve] | – |
| CC(C(=O)N(C)Cc1ccccc1)N1CCN(C/C=C/c2ccccc2)CC1 (centres undefined) | – | inactive: -10.5% |
| COC(=O)c1cc(C)sc1NC(=S)N1CCN(CCc2ccccc2)CC1 | active: 14.1 µM | – |
| COc1cc(OC)cc(-c2nnc(SCC(=O)N3CCCc4ccccc43)o2)c1 | inconclusive [inhibitor, partial curve] | – |
| COc1ccc2nc(C)cc(SCC(=O)N/N=C/c3ccc(O)cc3O)c2c1 | active: 25.1 µM | – |
| CC(C)C(NS(=O)(=O)c1cccs1)C(=O)NCc1ccc2c(c1)OCO2 (centres undefined) | inconclusive [inhibitor, partial curve] | – |

| SMILES | Potency | activity, negative = inhibition |
| --- | --- | --- |
| CCCCN(Cc1ccccc1)C(=O)C1CCN(S(=O)(=O)c2c(C)noc2C)CC1 | – | inactive: 7.99% |
| O=C(O)/C=C\C(=O)NCc1ccccc1 | inconclusive [inhibitor, single point] | – |
| O=C(CN1CCCc2ccccc21)NCc1ccc2c(c1)OCO2 | inconclusive [inhibitor, single point] | – |
| C/C(=N/n1cnnc1)c1cccnc1 | – | inactive: 5.31% |
| CCOC(=O)c1sc(NC(=O)CCCn2nc([N+](=O)[O-])cc2C)c(C(=O)OCC)c1C | – | inactive: -6.78% |
| CCC(=O)c1cc2c(cc1NC(=O)c1ccc(C)cc1)OCCO2 | inconclusive [inhibitor, single point] | – |
| O=[N+]([O-])c1nn(-c2ccc3c(c2)OCCO3)n(O)c1=Nc1ccc(Cl)cc1 | inconclusive [inhibitor, partial curve] | – |
| CNc1nc(OC)nc(N2CCOCC2)n1 | – | inactive: -2.31% |
| CNC(=O)c1cc(OCC(F)(F)F)ccc1OCC(F)(F)F | inconclusive [inhibitor, single point] | – |
| CN(C)S(=O)(=O)c1cccc(NC(=O)CSc2nncn2-c2ccccc2)c1 | inconclusive [inhibitor, single point] | – |
| Cc1ccc(C(=O)O)cc1NC(=S)NC(=O)c1ccc(-c2ccccc2)cc1 | active: 14.1 µM | – |
| CCN(CC)CCN1C(=O)C(O)=C(C(=O)c2cc3cccc(OC)c3o2)C1c1ccc(F)cc1 (centres undefined) | – | inactive: -0.829% |
| C=CCn1c(C)cc(C(=O)CN2C(=O)c3ccccc3C2=O)c1C | inconclusive [inhibitor, single point] | – |
| CCN(CC)S(=O)(=O)c1ccc(C(=O)NC2=C(C(=O)OC)SCC2)cc1 | inconclusive [inhibitor, single point] | – |
| S=c1[nH]nc(CSc2nc3ccccc3s2)n1C1CCCCC1 | active: 3.16 µM | – |
| C=CCn1c(SCC(=O)Nc2cccc(C)c2)nnc1-c1cnccn1 | inconclusive [inhibitor, single point] | – |
| Cc1cccc(C)c1OCCNC(=O)c1ccc2ccccc2n1 | inconclusive [inhibitor, single point] | – |
| COc1ccc(NS(=O)(=O)c2cccc(Cl)c2Cl)cc1S(=O)(=O)N1CCCCC1 | active: 0.355 µM | – |
| Cc1cccc(NC(=O)CN2CCSc3ccccc32)c1 | inconclusive [inhibitor, single point] | – |
| C=CCN(CC=C)C(=S)NC(=O)c1ccc(OC)c(Br)c1 | inconclusive [inhibitor, single point] | – |
| COCCn1c(SCC(N)=O)nnc1-c1c[nH]c2ccccc12 | – | inactive: -8.85% |
| Cc1cccc(/C=N/NC(=O)C2CCCNC2=O)c1 (centres undefined) | – | inactive: -0.254% |
| O=C(Nc1ccccc1-c1nc2ccccc2[nH]1)c1ccc(S(=O)(=O)N2CCCCC2)cc1 | – | inactive: 40.5% |
| Cc1cnn(C(=S)NCCc2ccccc2)c1 | inconclusive [inhibitor, single point] | – |
| COc1ccc(Cl)cc1-c1nc(-c2ccc(NC(=O)c3cccs3)cc2)no1 | inconclusive [inhibitor, single point] | – |

| SMILES | Potency | activity, negative = inhibition |
| --- | --- | --- |
| O=C(CCCN1C(=O)/C(=C\c2ccccc2)SC1=S)Nc1ccc(O)cc1 | inconclusive [inhibitor, single point] | – |
| CCn1c(=O)n(CC(=O)N(C)Cc2ccccc2)c(=O)c2ccccc21 | inconclusive [inhibitor, single point] | – |
| C1CCN(CC[C@@H]2CCCCN2)CC1 | – | inactive: 6.71% [at 13.5 µM] |
| Cc1cc(=O)oc2cc(OCCSCCN3CCOCC3)ccc12 | inconclusive [inhibitor, partial curve] | – |
| COC(=O)COc1ccc(S(=O)(=O)NCCC2=CCCCC2)cc1C | – | inactive: -6.11% |
| Oc1c(Br)cc(Br)c2cccnc12 | – | inactive: 10.1% |
| O=C(CN1CCN(S(=O)(=O)c2ccccc2)CC1)Nc1ccccc1C(=O)c1ccccc1 | inconclusive [inhibitor, partial curve] | – |
| O=C(NCCC1=CCCCC1)C1CCCN(c2nc3ccccc3o2)C1 (centres undefined) | inconclusive [inhibitor, partial curve] | – |
| COC(=O)C1=C(C)NC(=S)NC1c1ccco1 (centres undefined) | inconclusive [inhibitor, partial curve] | – |
| CN(CC(=O)Nc1ccccc1Br)Cc1nc2ccccc2c(=O)[nH]1 | – | inactive: -4.35% |
| O=C(O)c1cccc(CN2C(=O)SC(Nc3cccc4ccccc34)C2=O)c1 (centres undefined) | inconclusive [inhibitor, partial curve] | – |
| CC1CCCC2(C1)NC(=S)c1c(sc3c1CCCC3)N2 (centres undefined) | active: 3.55 µM | – |
| O=C(N/N=C/c1ccncc1)c1ccc(NC(=O)c2cccc(Cl)c2)cc1 | – | inactive: -4.39% |
| COc1ccc(C)cc1N(CC(=O)Nc1cccnc1)S(=O)(=O)c1ccccc1 | – | inactive: 12% |
| Cc1ccc(OCC(=O)OC(C)CN(C)Cc2ccccc2)cc1 (centres undefined) | inconclusive [inhibitor, single point] | – |
| Cc1cc(C)n(-c2ccc(C(=O)Nc3cc(S(=O)(=O)N(C)C)ccc3Cl)cc2)n1 | inconclusive [inhibitor, single point] | – |
| O=C(Nn1c(-c2ccccc2)nc2ccccc2c1=O)C1CCC1 | inconclusive [inhibitor, single point] | – |
| CCN1C(=O)C2C(c3ccc(O)c(OC)c3)NC(C)(C(=O)OC)C2C1=O (centres undefined) | – | inactive: -6% |
| O=[N+]([O-])c1cccc(NC2=NCCC2)c1 | – | inactive: 11.8% |
| Cc1ncc(CO)c2cc(S(=O)(=O)c3ccc(F)cc3)c(=O)oc12 | inconclusive [inhibitor, single point] | – |
| COC(=O)CCC(=O)Nc1ccc(C)cc1OC(=O)CCC(=O)OC | – | inactive: -10.7% |
| CCN1C(=O)CC(C(=O)Nc2ccc(F)cc2)SC1=Nc1cccc(OC)c1 (centres undefined) | active: 10 µM | – |
| COc1ccc(NC(=O)CCCn2c(=O)c3sccc3n(Cc3ccc(C)cc3C)c2=O)cc1 | inconclusive [inhibitor, single point] | – |
| Cc1nc(/C(=N/O)C(N)=O)cs1 | – | inactive: -0.0461% |

Reference: PubChem BioAssay AID1030 (National Center for Advancing Translational Sciences (NCATS), 2008)
